Experimental data: PubChem BioAssay AID686978 (National Center for Advancing Translational Sciences (NCATS), 2013)
Among all 420,000 compounds or so, about 64,000 (15%) were called active. Inconclusive means that the source gave no clear call. Such entries were picked first, then a sample of the others. Calls come from the whole dose curve; as a rule, active = well fitted inhibition curve with a large enough effect; inconclusive = small, poorly fitted or top-dose-only effect; inactive = flat fitted curve, though single readings scatter. No potency is given beside an inconclusive call; the fits are too rough.

test: qHTS for Inhibitors of human tyrosyl-DNA phosphodiesterase 1 (TDP1): qHTS in cells in absence of CPT; conditions: DT40 Tdp1-/- hTDP1 cells, no CPT, ATP luminescence, 48 h; activity change, negative = growth inhibition: at 46.2 µM (top of the series) unless noted; note: nearly all actives have a fitted effect of over 55% in size
In short: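 Chicken DT40 Tdp1-/- cells complemented with human TDP1, screened without camptothecin (DMSO vehicle only), 400 cells/well. Compounds pin-transferred, cells incubated at 37 °C for at least 48 hr. Growth read as ATP-dependent luminescence (CellTiter-Glo, 30 min at RT).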
% is set by controls: 0 for no effect and ±100 for the full control effect; potency is the fitted concentration of half-maximal effect; tags give direction and shape of the fitted curve.

| Structure (SMILES) | Potency | activity change, negative = growth inhibition |
| --- | --- | --- |
| COc1ccc(CCNC(=O)C(=O)NCC(c2ccco2)S(=O)(=O)c2ccc(F)cc2)cc1 (centres undefined) | inconclusive [inhibitor, single point] | – |
| Cc1ccc(C)c(-n2cc(-c3ccc(Cl)cc3)nc2SCC(=O)NC2CCS(=O)(=O)C2)c1 (centres undefined) | inconclusive [inhibitor, single point] | – |
| COc1cccc(-c2csc(NC3OC(=O)c4c3ccc(OC)c4OC)n2)c1 (centres undefined) | inconclusive [inhibitor, single point] | – |
| CCOC(=O)CCSc1nc(-c2ccc3c(c2)OCO3)cc(C(F)(F)F)c1C#N | – | inconclusive: -32.4% [inhibitor] |
| COCCn1c(=N)c(C(=O)NC(C)c2ccccc2)cc2c(=O)n3cc(C)ccc3nc21 (centres undefined) | – | inactive: -10.1% |
| COc1ccccc1CC(=O)Nc1ccc(S(=O)(=O)N2CCCC2)cc1 | – | inactive: -1.81% |
| CCc1cc(=O)oc2c3c(c(Cl)cc12)OCN(Cc1cccc(OC)c1)C3 | – | inactive: -18.9% |
| CCN(C(=O)c1cc2c(s1)-c1c(C)cccc1OC2)c1ccccc1F | active: 20.6 µM | – |
| O=C(CCCCCn1c(=O)[nH]c2ccsc2c1=O)NCc1ccc2c(c1)OCO2 | – | inactive: -5% |
| COc1ccc(CC(=O)N2CCc3cc(OC)c(OC)cc3C2COc2ccc(OC)cc2)cc1 (centres undefined) | active: 16.4 µM | – |
| COc1ccc(CNC(=O)C(=O)NCCC2CCCCN2S(=O)(=O)c2cccs2)cc1 (centres undefined) | inconclusive [inhibitor, single point] | – |
| Cc1ccc2c(c1)-c1cc(C)nn1C(c1sccc1C)N2 (centres undefined) | inconclusive [inhibitor, single point] | – |
| CC(C)Oc1ccc(CNC(=O)CCCN2C(=O)c3cccnc3Oc3ccc(Cl)cc32)cc1 | inconclusive [inhibitor, single point] | – |
| CC1CCN(c2oc(-c3ccco3)nc2S(=O)(=O)c2ccccc2)CC1 | – | inconclusive: -35.3% [inhibitor] |
| Cc1cc(=O)[nH]c2nc(N)ccc12 | – | inactive: 10.3% |
| O=C(COC(=O)C1CC2C=CC1C2)Nc1cccc(S(=O)(=O)N2CCCCCC2)c1 (centres undefined) | inconclusive [inhibitor, single point] | – |
| Cc1ccsc1C(=O)OC(C)C(=O)NC1CCCCC1C (centres undefined) | – | inactive: -15.5% |
| Cc1ccc2sc(NC(=O)c3ccc(N4C(=O)CCC4=O)cc3)nc2c1C | inconclusive [inhibitor, single point] | – |
| COc1cc(OC)cc(-c2c(-c3cccs3)c3cc(-c4ccc(C(N)=O)cc4)ccc3n2C)c1 | active: 16.4 µM | – |
| O=C(CN1CCC(NC(=O)Cc2ccccc2)CC1)Nc1ccccc1Br | – | inactive: -17.5% |
| CCOC(=O)c1scc(-c2ccccc2)c1S(=O)(=O)Nc1cc(OC)cc(OC)c1 | inconclusive [inhibitor, single point] | – |
| CCCCP(=O)(CCCC)Cc1ccccc1O | inconclusive [inhibitor, single point] | – |
| CCN(CC)CCCC(C)Nc1cc(/C=C/c2ccccc2Cl)nc2cc(Cl)ccc12 (centres undefined) | active: 0.891 µM | – |
| COc1cccc(NC(=O)CN(C)C(C)C(=O)Nc2cc([N+](=O)[O-])ccc2Cl)c1 (centres undefined) | – | inactive: -22.3% |
| Cc1ccc(C(=O)c2c3ccccc3[n+]([O-])n2CCC(N)=O)cc1 | – | inactive: -8.96% |

| Structure (SMILES) | Potency | activity change, negative = growth inhibition |
| --- | --- | --- |
| Cc1ccc(/C=C2/NC(=O)N(Cc3ccc(Br)cc3)C2=O)o1 | inconclusive [inhibitor, single point] | – |
| Cc1cc(C)n(C(=O)c2ccc([N+](=O)[O-])cc2Cl)n1 | – | inactive: 2.31% |
| CN1C=C/C(=C\c2cc[n+](C)c3ccccc23)c2ccccc21 | active: 0.0082 µM | – |
| COc1cccc(N2CCN(c3ccc4nnc(CCC(=O)Nc5cccc(C(C)=O)c5)n4n3)CC2)c1 | inconclusive [inhibitor, single point] | – |
| O=C(CCCC(=O)c1ccc(O)cc1)c1ccc(O)cc1 | inconclusive [inhibitor, full curve, poor fit] | – |
| S=C1NCCNC(=S)NCCOCCOCCOCCN1 | – | inactive: 5.08% |
| COc1ccc(S(=O)(=O)N2CCCCC2)cc1NC(=O)c1cnc(C)cn1 | inconclusive [inhibitor, partial curve, poor fit] | – |
| COc1cc(CSC)nc(-c2ccccc2)n1 | – | inactive: -9.35% |
| O=C(Cn1cc(SCc2c(F)cccc2Cl)c2ccccc21)N1CCCCCC1 | inconclusive [inhibitor, single point] | – |
| CNc1nc(N)c([N+](=O)[O-])c(Nc2cccc(F)c2)n1 | inconclusive [inhibitor, single point] | – |
| CN(C)CCOC1c2ccccc2CCc2ccc3ccccc3c21 (centres undefined) | active: 20.6 µM | – |
| CCCC(c1nnnn1Cc1ccc2c(c1)OCO2)N1CCC(C(N)=O)CC1 (centres undefined) | – | inconclusive: -35.2% [inhibitor] |
| COC(=O)Cn1cc(S(=O)(=O)NCc2ccc(C)cc2)c2cc([N+](=O)[O-])ccc21 | – | inactive: 9.91% |
| CCOC(=O)N1CCN(C(=S)NC(C)(C)C)CC1 | – | inconclusive: -20.5% [inhibitor] |
| CCOC(=O)/C(=C/c1ccc(N2CCC(c3ccccc3)=N2)cc1)C(C)=O | inconclusive [inhibitor, single point] | – |
| CC1CCCCN1C(=O)CSc1nc(N)nc(N)n1 (centres undefined) | – | inactive: -16.5% |
| COC(=O)[C@@H]1C2CC3c4[nH]c5cc(OC)ccc5c4CCN3CC2C[C@H](OC(=O)c2cc(OC)c(OC)c(OC)c2)C1OC (some centres undefined) | inconclusive [inhibitor, single point] | – |
| COc1ccc(CNC(=O)COC(=O)c2c(C)nn(-c3ccccc3)c2C)cc1OC | inconclusive [inhibitor, single point] | – |
| CC1(C)CC(NS(=O)(=O)OCC(Cl)(Cl)Cl)c2cc(C#N)ccc2O1 (centres undefined) | inconclusive [inhibitor, single point] | – |
| N#C/C(=C\c1ccc(OC(F)F)cc1)C(=O)N1CCCCC1 | – | inconclusive: -31.5% [inhibitor] |
| CCOc1ccc(NS(=O)(=O)c2ccc(-c3cc(C)no3)s2)cc1 | active: 18.4 µM | – |
| Cc1ccc(C)c(NC(=O)c2cnn(-c3cccc(F)c3)c2C2CCN(C(=O)OC(C)(C)C)CC2)c1 | active: 23.1 µM | – |
| COc1ccc(/C=N/Nc2ccccn2)cc1O | – | inactive: -6.39% |
| Cc1c(C(=O)NCc2ccc3c(c2)OCCO3)sc(=O)n1Cc1ccccc1F | inconclusive [inhibitor, single point] | – |
| Cn1c(=O)nc2n(Cc3ccccc3)c3cccc(Cl)c3cc-2c1=O | active: 29.1 µM | – |

| Structure (SMILES) | Potency | activity change, negative = growth inhibition |
| --- | --- | --- |
| O=C(CN1CCCCCC1)NN(Cc1ccccc1)c1ccccc1 | inconclusive [inhibitor, single point] | – |
| c1ccc2c(c1)OCC(c1csc3ncnc(N4CCCC4)c13)O2 (centres undefined) | active: 10.3 µM | – |
| O=c1c(-c2cccc(Cl)c2)c[nH]n1-c1ccccc1 | active: 16.4 µM | – |
| Cc1c(Cl)cccc1NC(=O)c1cnc2sc(N3CCOCC3)nn2c1=O | inconclusive [inhibitor, full curve, poor fit] | – |
| O=C(C/C=N\OCc1ccc([N+](=O)[O-])cc1)Nc1ccc(Br)cc1 | – | inactive: -26% |
| CN1OC2C(=O)N(c3ccccc3)C(=O)C2C1c1ccc(F)cc1 (centres undefined) | – | inactive: -1.17% |
| CCCC(=O)N1c2ccc(-c3csc(N)n3)cc2CC1C (centres undefined) | – | inactive: -25.1% |
| COc1ccc(Cc2nnc(-c3cccc(C)c3)o2)cc1OC | inconclusive [inhibitor, single point] | – |
| CCN(Cc1ccncc1)Cc1ccc2c(c1)CN(C(=O)c1ccc(C#CC(C)(C)O)o1)CCO2 | inconclusive [inhibitor, single point] | – |
| CN(CC(=O)Nc1ccc(N2CCOCC2)cc1)CC(=O)Nc1ccc(N2CCOCC2)cc1 | – | inactive: -13.6% |
| Cc1oc(-c2ccc(Cl)cc2)nc1CN1CCC(C(=O)NCC2CCCO2)CC1 (centres undefined) | – | inactive: -1.34% |
| Cc1nc2c(Cl)cc(Cl)cc2[nH]1 | – | inactive: -20% |
| Cc1c(Cc2ccccc2)c(NCCN(C)C)n2c(nc3ccccc32)c1C#N | inconclusive [inhibitor, single point] | – |
| COc1ccc(-n2nc(C(=O)NCC(=O)NCCc3ccc(OC)c(OC)c3)c3ccccc3c2=O)cc1Cl | active: 13 µM | – |
| O=C(Nc1ccc(OC(F)(F)F)cc1)C1CCCN(S(=O)(=O)c2cccnc2)C1 (centres undefined) | active: 13 µM | – |
| COc1ccccc1C(CNC(=O)c1cccc(S(=O)(=O)Nc2ccc(C)cc2)c1)N(C)C (centres undefined) | inconclusive [inhibitor, single point] | – |
| CCn1c(SC(C)C(=O)OC)nnc1-c1c[nH]c2ccccc12 (centres undefined) | active: 23.1 µM | – |
| COc1ccc(NS(=O)(=O)c2cc(NC(=O)CCSc3ccccc3)ccc2OC)cc1 | inconclusive [inhibitor, single point] | – |
| CC(C)n1c(SCC(=O)N2CCCCC2)nc2c1c(=O)n(C)c(=O)n2C | – | inactive: -18.6% |
| CCCCOC(=O)n1c(SCC(=O)N(CC)CC)nc2ccccc21 | inconclusive [inhibitor, single point] | – |
| CC(=O)c1c(C)[nH]c(C(=O)Nc2ccc(C)c(S(=O)(=O)N(C)C)c2)c1C | inconclusive [inhibitor, single point] | – |
| COc1ccc(CCNC(=O)CSc2cn(Cc3ccccc3)c3ccccc23)cc1OC | inconclusive [inhibitor, single point] | – |
| Cc1ccc(S(=O)(=O)Nc2ccccc2-c2ccccc2NS(=O)(=O)c2ccc(C)cc2)cc1 | inconclusive [inhibitor, single point] | – |
| CCOC(=O)CNC(=O)Nc1nnc(-c2ccc(OCC)cc2)o1 | – | inactive: 0.688% |
